# Among all 71,000 compounds or so, about 1,800 (2.5%) were called active. The shares of active, inactive and inconclusive entries below differ from those in the screen. The call rests on the fitted dose curve; in most records, active means well fitted activation curve with a large enough effect in the signal ratio, with a control signal flat (not every such curve was filed as active); inconclusive means small, poorly fitted or top-dose-only effect, or effect the other way, or a change in a side signal; inactive means flat fitted curve, though single readings scatter; the % refers to the signal ratio. Where the call is inconclusive, the potency comes from a doubtful curve fit.
# Experiment: Cell signaling CRE-BLA (Fsk stim); on activity change, negative = inhibition: % of control where 0% means no effect
# Conditions: CHO CRE-bla reporter (cAMP response element driving beta-lactamase), forskolin EC10, beta-lactamase ratio; activity change, negative = inhibition: at 38.2 µM (top of the series) unless noted
# How it was run: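 Reporter-gene assay: CHO cells with beta-lactamase behind cAMP responsive elements, co-treated with compound and EC10 NKH 477 for 3 hours at 37 degrees Celsius. Activity came from the 460/530 nm CCF4 emission ratio.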
# Potency means the concentration at half of the fitted maximal effect; tags describe the fitted curve by direction and shape.
SMILES,"activity change, negative = inhibition",Potency
COc1cc2c(cc1NC(=O)Cn1cnc3c1c(=O)n(C)c(=O)n3C)oc1ccccc12,inconclusive: 21.6%,
CC1Cc2nc(SCC(=O)NCc3ccco3)n(Cc3ccccc3)c(=O)c2S1 (stereo not drawn),,active: 10 µM
COc1cc2c(cc1NC(=O)c1cncc(Br)c1)oc1ccccc12,,"inconclusive: 25.1 µM [rising, single point]"
Cc1nc2ccccc2c(=O)n1/N=C/c1c(O)ccc2oc3c(c12)CCCC3,,"inconclusive: 3.16 µM [rising, full curve, poor fit]"
Cc1cccc(N2CCN(Cc3c(C)n(C)n(-c4ccccc4)c3=O)CC2)c1C,inconclusive: -29.6% [at 7.6 µM],
COCCN1C(=O)C(=O)/C(=C(/O)c2ccc(OC(C)C)cc2)C1c1cccnc1 (stereo not drawn),inconclusive: 19.6%,
Cc1ccc([C@@H](O)c2cnc(C)n2Cc2ccccc2)cc1,inconclusive: 13.5% [at 7.6 µM],
Cc1noc(C)c1C(=O)N1CCN(CCc2ccccc2)CC1,,"inconclusive: 25.1 µM [rising, single point]"
CS(=O)(=O)Nc1cccc(-c2cc(NCc3cccs3)ncn2)c1,inconclusive: 18.8%,
CSc1nnc2c3ccccc3n(Cc3ccccc3)c2n1,,"inconclusive: 2.51 µM [rising, partial curve]"
CCOC(=O)c1ccc(N2C(=O)C3C(C2=O)C(C(=O)c2ccc(Cl)cc2)N2CCCC32)cc1 (stereo not drawn),inconclusive: -8.42%,
CSc1ccccc1NC(=O)COc1ccc(S(=O)(=O)N2CCCC2)cc1,inconclusive: 22.5%,
CCOC(=O)c1c(C)n(C)c2ccc(OCC(O)Cn3c(C)nc4ccccc43)cc12 (stereo not drawn),,"inconclusive: 2 µM [rising, partial curve]"
CCCS(=O)(=O)NCCc1csc(-c2cccnc2)n1,inactive: -4.64%,
Cc1cccc(CNc2ncnc3ccc(-c4ccc(C(=O)N(C)C)cc4)cc23)c1,inconclusive: 20.7%,
c1ccc2cc(NCNc3ccc4ccccc4c3)ccc2c1,inactive: 4.25% [at 7.6 µM],
Cc1ccc(C)c(Cn2c(=O)n(CCCC(=O)NCc3ccco3)c(=O)c3ccccc32)c1,inconclusive: -5.35%,
O=C(CN1CCN(c2ccccn2)CC1)NCCc1ccccc1,inconclusive: -6.61%,
Cc1noc(C)c1COC(=O)c1ccc2c(c1)OCCO2,inactive: -0.9%,
CC#CCOC(=O)C1=CCCN(C)C1,inactive: -16.5%,
O=[N+]([O-])c1ccc2c(c1)c(S(=O)(=O)O)cc1nonc12,inactive: -5.55% [at 7.6 µM],
CCOC(=O)CNc1c(-c2ccc(F)cc2)nc2cnccn12,,"inconclusive: 12.6 µM [rising, single point]"
Cc1noc(C)c1C(=O)N1CCC2(CC1)CN(c1ccccn1)C2,inactive: 3.62%,
Cc1ccc2oc(=O)n(CC(=O)O)c2c1,inactive: -1.54%,
CC(C)CCn1c(SCCc2ccccc2)nc2c1c(=O)[nH]c(=O)n2C,inconclusive: 23.9%,
COC(=O)CN1CCN(C(=O)c2ccc(F)cc2)c2ccccc2C1,,"inconclusive: 20 µM [rising, single point]"

SMILES,"activity change, negative = inhibition",Potency
Cc1nc2ccccc2c2nc3ccccc3n12,,"inconclusive: 7.94 µM [rising, partial curve]"
Cc1cccc(CNc2ncncc2-c2ccccc2Cl)c1,inconclusive: 18.5%,
O=c1[nH]c(=O)n(CCO)c2nnn(Cc3ccccc3)c12,inactive: -1.36%,
Cc1noc(C)c1-c1nc(NCc2cccnc2)c2ccccc2n1,,active: 12.6 µM
CCOC(=O)C1(C(F)(F)F)N=C(c2cccnc2)OC(N2CCOCC2)=N1 (stereo not drawn),,"inconclusive: 10 µM [rising, partial curve]"
O=C(Cn1cnc2c(nnn2-c2ccc(F)cc2)c1=O)NCC1CCCO1 (stereo not drawn),inconclusive: -0.805%,
CCNc1ccc2c(Cl)cc(=O)oc2c1,inconclusive: 29.8%,
CC(C(=O)Oc1ccc2c(c1)OCO2)N1C(=O)c2ccccc2C1=O (stereo not drawn),inconclusive: 2.13%,
COc1cc2oc(=O)c(Br)c(C)c2c(OC)c1OC,,"inconclusive: 12.6 µM [rising, partial curve]"
Oc1c(C(c2ccccc2)N2CCCCC2)sc2ncnn12 (stereo not drawn),inconclusive: -22.7%,
COC(=O)c1ccccc1NC(=O)CC#N,inconclusive: 39.5%,
CCOc1cc(S(=O)(=O)n2c(C)nc3ccccc32)ccc1F,inactive: 9.51%,
CCCCn1c(=O)c2ccccc2c2ccccc2c1=O,inconclusive: 27.3%,
COC(=O)c1nc(N)sc1-c1ccccc1,,"inconclusive: 25.1 µM [rising, single point]"
O=C(c1ccncc1)N(Cc1ccco1)Cc1cc2ccccc2[nH]c1=O,inactive: -11.3%,
Cn1c(=O)c2c(SCC(=O)c3ccccc3)nc(C3CC3)nc2n(C)c1=O,,"inconclusive: 2 µM [rising, single point]"
COc1ccc(Cn2c(=O)n(Cc3ccco3)c(=N)c3c4c(sc32)COC(C)(C)C4)cc1,,"inconclusive: 3.98 µM [rising, partial curve]"
COc1ccc(-n2cnc3c(cnn3CCC#N)c2=N)cc1,,"inconclusive: 25.1 µM [rising, single point]"
Cc1ccnc(NC(=O)C23CC4CC(CC(C4)C2)C3)c1,inactive: 3.86%,
CCOC(=O)Cn1nnnc1C(CC)N(Cc1cc2c(C)cc(C)cc2[nH]c1=O)C1CCCC1 (stereo not drawn),inactive: -4.26%,
CC(=O)Oc1cc2oc(=O)cc(C)c2cc1OC(C)=O,,"inconclusive: 12.6 µM [rising, partial curve]"
O=C(NCCC1=CCCCC1)c1ccc2c(=O)n3c(nc2c1)CCCCC3,,"inconclusive: 10 µM [rising, single point]"
CN1CCc2ccccc2[C@@H]1Cc1ccccc1NC(=O)c1sc2ccccc2c1Cl,inactive: 1.05% [at 7.6 µM],
CCCCCSc1nnc(-c2cc(Br)ccc2N)c(=O)[nH]1,,"inconclusive: 2 µM [rising, full curve]"
CC(C)OC(=O)CN1C(=O)C(C)(C)Oc2ccc(C(=O)NC(C)(C)C)cc21,,"inconclusive: 25.1 µM [falling, single point]"
COC(=O)[C@@]1(Cc2ccc(OC)cc2)[C@H]2c3cc(C(=O)N(C)C)n(Cc4ccc(Cl)c(C(F)(F)F)c4)c3C[C@H]2CN1C(=O)c1ccccc1,inconclusive: 12.2%,

SMILES,"activity change, negative = inhibition",Potency
COc1ccc(OC)c(NC2c3ccccc3C(=O)N2c2cccnc2)c1 (stereo not drawn),inactive: 9.32%,
COc1cccc(-c2nc(CS(=O)(=O)CC(=O)Nc3cccc(C)c3C)c(C)o2)c1,,"inconclusive: 10 µM [rising, single point]"
COc1ccc(CN(CCN2CCOCC2)C(=O)c2c(F)cccc2F)cc1OC,inconclusive: 11.9%,
CCn1ncc(Cl)c1C(=O)Nc1cc(Cl)ccc1Cl,,"inconclusive: 12.6 µM [rising, single point]"
COC(=O)[C@H](CCSC)NC(=O)NC1CCN(Cc2ccccc2)CC1,inactive: 0.928%,
CO[C@@H]1CC[C@@]2(C)[C@@H](CC[C@@]3(C)[C@H]2CC=C2[C@H]4CC(C)(C)[C@H](O)[C@@H](OC(C)=O)[C@]4(CO)[C@H](O)C[C@]23C)[C@@]1(C)CO (tested in a mixture with another compound),,"inconclusive: 12.6 µM [rising, single point]"
Cc1ccc(-c2nnc3sc(CCc4ccccc4)nn23)cc1,,"inconclusive: 12.6 µM [rising, single point]"
Cc1ccc(CS(=O)(=O)CCC(=O)NCCCN2CCCC2=O)cc1,inconclusive: 11.1%,
Cc1cccc(C)c1OC[C@@H](N)C(C)C,inactive: -3.04%,
CCCCCCn1c(CN2CCCCC2CC)nc2c1c(=O)n(C)c(=O)n2C (stereo not drawn),,"inconclusive: 10 µM [rising, partial curve]"
COC(=O)Cn1cnc2sc(C)c(S(=O)(=O)N3CCN(c4ccccc4OC)CC3)c2c1=O,inconclusive: 7.48%,
CC(C)Sc1nc2sc3c(c2c2nnc(SCC(=O)NCc4ccco4)n12)CCCC3,inconclusive: 24.7%,
CC(C)=CC(=O)OCC(=O)Nc1ccccc1Cl,inactive: 6.52%,
Cc1ccc(C(=O)OCc2cn3ccccc3n2)cc1,inactive: 23.4%,
Cc1cc2cc3c(cc2nc1SCC(=O)N1CCN(C(=O)c2ccco2)CC1)OCO3,,"inconclusive: 25.1 µM [rising, single point]"
Cc1csc(NC(=O)C2CCCO2)n1 (stereo not drawn),,"inconclusive: 0.1 µM [rising, full curve]"
COc1ccc(-c2nc3cnc(Nc4cccc(OC)c4)nc3n(Cc3cccs3)c2=O)cc1,,"inconclusive: 0.794 µM [rising, full curve]"
CNC(=O)N(C1=NCC(C)(C)S1)c1ccc(F)c(Cl)c1,inconclusive: 28.6%,
Cc1nn(-c2ccccc2)c2c1C1(C(=O)N(C)c3ccccc31)N(c1ccccc1)C(=O)N2 (stereo not drawn),inconclusive: -18.5%,
COc1ccc(S(=O)(=O)N(C)CC(=O)Nc2c(F)cccc2F)cc1,inactive: -8.46%,
CCOC(=O)c1ccc(Oc2nc(NC)nc(OC)n2)cc1,,"inconclusive: 20 µM [rising, single point]"
Cn1c(/C=N/n2cnnc2)nc2ccccc21,inactive: 43.8% [at 7.6 µM],
c1ccc2c(c1)nnn1c3ccccc3nc21,,active: 10 µM
CCOc1cc(S(=O)(=O)N(CC)CC)ccc1Br,,"inconclusive: 5.01 µM [rising, partial curve]"
O=c1ccn([C@@H]2O[C@@H](COP(=O)(O)OP(=O)(O)O)[C@H](O)[C@@H]2O)c(=O)[nH]1,inactive: -2.36%,
COc1ccc(OC)c(C2=NOC(C(=O)Nc3cc(C)nn3-c3ccccc3)C2)c1 (stereo not drawn),,"inconclusive: 7.94 µM [rising, partial curve]"

# Source: PubChem BioAssay AID662 (National Center for Advancing Translational Sciences (NCATS), 2007)
